Paper PMC11781671
No constants are given. Whether binding was seen depends on the method and setting. Binding seen in cells or lysates may run through a third protein. Some results given as binding are weak or reduced against the parent protein; the word gives no strength. For part of these data: Sequences can lack the tags named with a protein.

The chains behind the UniProt entries cited, without tags or fusion partners.
UniProt P03165: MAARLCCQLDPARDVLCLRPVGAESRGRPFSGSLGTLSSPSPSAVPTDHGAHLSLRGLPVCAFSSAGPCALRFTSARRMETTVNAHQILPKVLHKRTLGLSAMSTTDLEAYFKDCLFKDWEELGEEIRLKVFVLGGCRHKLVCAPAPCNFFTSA
UniProt P28360: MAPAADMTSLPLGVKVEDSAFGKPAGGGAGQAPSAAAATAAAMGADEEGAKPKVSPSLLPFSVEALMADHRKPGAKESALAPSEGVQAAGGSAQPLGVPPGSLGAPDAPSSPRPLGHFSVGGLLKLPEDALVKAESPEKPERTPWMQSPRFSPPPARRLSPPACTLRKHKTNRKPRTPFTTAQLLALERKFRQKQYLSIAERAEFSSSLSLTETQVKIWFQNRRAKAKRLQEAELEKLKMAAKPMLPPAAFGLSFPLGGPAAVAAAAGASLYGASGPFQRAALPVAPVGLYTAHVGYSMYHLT
UniProt Q8WW22: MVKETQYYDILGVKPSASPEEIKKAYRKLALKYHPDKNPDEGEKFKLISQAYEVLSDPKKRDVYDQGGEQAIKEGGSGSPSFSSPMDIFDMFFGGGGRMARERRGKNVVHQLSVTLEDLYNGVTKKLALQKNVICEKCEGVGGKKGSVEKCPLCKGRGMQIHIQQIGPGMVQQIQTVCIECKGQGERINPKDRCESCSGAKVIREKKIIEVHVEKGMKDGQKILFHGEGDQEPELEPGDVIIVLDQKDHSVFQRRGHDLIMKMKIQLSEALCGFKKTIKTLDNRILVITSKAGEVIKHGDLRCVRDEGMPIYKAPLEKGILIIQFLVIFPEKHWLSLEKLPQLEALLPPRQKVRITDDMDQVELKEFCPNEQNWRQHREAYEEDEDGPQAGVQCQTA

Legend:
[1] = target: HA-tagged HBx (hepatitis B virus X protein, HBV genotype D) (Hepatitis B virus genotype D) (UniProt P03165); assay: co-IP; Huh7 cells co-transfected with a Flag-tagged host protein plasmid and pHBx-HA; MG132 for the last 12 h; precipitated with anti-HA beads
[2] = target: Flag-tagged homeobox protein MSX-1 (MSX1) (human) (UniProt P28360); assay: co-IP; Huh7 cells co-transfected with pMSX1-Flag and pHBx-HA or its control plasmid (1:1); MG132 for the last 12 h; beads not stated
[3] = target: T1, Flag-tagged CRYAB (exogenous) (human) (UniProt P02511); assay: co-IP; Huh7 cells co-transfected with a Flag-tagged host protein plasmid and an HBx plasmid; MG132 for the last 12 h; precipitated with anti-Flag beads
T1 sequence: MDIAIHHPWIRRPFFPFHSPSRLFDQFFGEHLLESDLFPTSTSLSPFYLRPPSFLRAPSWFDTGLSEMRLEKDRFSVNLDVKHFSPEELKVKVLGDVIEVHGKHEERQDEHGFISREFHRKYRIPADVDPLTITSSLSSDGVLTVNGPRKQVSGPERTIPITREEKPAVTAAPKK

[4] = target: Flag-tagged DNAJA4 (exogenous) (human) (UniProt Q8WW22); assay: as above
[5] = target: HA-tagged HBx (hepatitis B virus X protein, HBV genotype D) (Hepatitis B virus genotype D) (UniProt P03165); assay: co-IP; Huh7 cells transfected with pHBx-HA; endogenous CRYAB detected

Molecule: Flag-tagged DNAJA4 (exogenous) (from UniProt Q8WW22 1-397)
- binding [1]: no binding

Molecule: HA-tagged HBx (hepatitis B virus X protein, HBV genotype D) (from UniProt P03165 1-154)
- binding [2]: no binding
- binding [3]: binds
- binding [4]: no binding

B1: Flag-tagged CRYAB (exogenous) (protein, UniProt P02511 1-175)
chain: T1 sequence
- binding [1]: binds

B2: endogenous CRYAB (protein, UniProt P02511 1-175)
chain: T1 sequence
- binding [5]: binds
